In assay [1] the target is T1, Flag-MISP (human) (UniProt Q8IVT2).
T1 sequence: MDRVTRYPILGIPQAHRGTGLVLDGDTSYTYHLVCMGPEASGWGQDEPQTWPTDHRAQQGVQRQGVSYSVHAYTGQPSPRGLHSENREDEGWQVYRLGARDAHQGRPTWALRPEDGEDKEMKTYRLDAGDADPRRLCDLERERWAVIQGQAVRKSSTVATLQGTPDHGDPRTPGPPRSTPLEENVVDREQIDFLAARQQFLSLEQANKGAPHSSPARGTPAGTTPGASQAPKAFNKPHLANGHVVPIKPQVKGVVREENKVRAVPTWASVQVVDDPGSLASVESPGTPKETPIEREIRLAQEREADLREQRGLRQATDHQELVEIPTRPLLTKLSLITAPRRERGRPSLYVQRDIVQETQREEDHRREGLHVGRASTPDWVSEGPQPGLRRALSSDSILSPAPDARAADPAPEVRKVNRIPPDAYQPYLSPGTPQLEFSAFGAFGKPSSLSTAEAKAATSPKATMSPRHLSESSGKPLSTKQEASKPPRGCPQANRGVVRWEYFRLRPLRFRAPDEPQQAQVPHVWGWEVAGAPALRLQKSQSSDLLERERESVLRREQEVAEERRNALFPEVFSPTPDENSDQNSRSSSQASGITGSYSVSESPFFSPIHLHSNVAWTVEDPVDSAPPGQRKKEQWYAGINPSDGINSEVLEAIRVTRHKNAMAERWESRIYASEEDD
The assay is described as follows: co-IP; Flag-MISP and HA-PLK1 in SNU-216 shCtrl or SHCBP1 knockdown cells; anti-Flag M2 agarose.

Assay [2] concerns the target T2, MISP bait (Gal4 DNA-binding domain fusion, pGBKT7) (human) (UniProt Q8IVT2).
T2 sequence: T1 sequence
The assay is described as follows: two-hybrid; Matchmaker system (Clontech); baits in pGBKT7, preys in pACT2; growth on -Ade/-His/-Leu/-Trp.

Assay [3] addresses T3, Flag or HA-tagged SHCBP1 (co-expressed for co-immunoprecipitation) (human) (UniProt Q8NEM2).
T3 sequence: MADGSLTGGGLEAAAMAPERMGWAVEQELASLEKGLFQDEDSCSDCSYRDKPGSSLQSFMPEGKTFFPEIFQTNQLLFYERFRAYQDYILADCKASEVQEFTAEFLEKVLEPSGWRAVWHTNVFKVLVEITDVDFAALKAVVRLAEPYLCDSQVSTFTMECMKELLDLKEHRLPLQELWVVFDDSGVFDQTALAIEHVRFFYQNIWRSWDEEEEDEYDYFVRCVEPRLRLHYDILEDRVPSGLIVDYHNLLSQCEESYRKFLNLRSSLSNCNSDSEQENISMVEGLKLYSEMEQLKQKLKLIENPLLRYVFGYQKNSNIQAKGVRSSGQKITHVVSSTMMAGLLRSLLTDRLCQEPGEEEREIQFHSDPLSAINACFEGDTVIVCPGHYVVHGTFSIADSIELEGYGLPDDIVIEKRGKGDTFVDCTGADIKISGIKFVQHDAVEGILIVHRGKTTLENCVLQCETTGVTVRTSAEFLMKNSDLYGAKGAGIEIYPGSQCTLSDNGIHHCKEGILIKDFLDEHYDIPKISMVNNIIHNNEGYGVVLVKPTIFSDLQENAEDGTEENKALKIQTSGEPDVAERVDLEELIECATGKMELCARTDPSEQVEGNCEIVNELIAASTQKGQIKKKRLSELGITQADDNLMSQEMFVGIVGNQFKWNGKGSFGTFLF
The assay is described as follows: co-IP; SHCBP1 and PLK1, their deletion mutants, domains and point mutants (Fig. 6a, b, e, f); cells not given; anti-Flag M2 agarose; also after TFBG at increasing concentrations.

Assay [4] concerns the target T4, SHCBP1 bait (Gal4 DNA-binding domain fusion, pGBKT7) (human) (UniProt Q8NEM2).
T4 sequence: T3 sequence
The assay is described as follows: two-hybrid; Matchmaker system (Clontech); baits in pGBKT7, preys in pACT2; growth on -Ade/-His/-Leu/-Trp.

Assay [5] has as its target Flag or HA-tagged PLK1 (co-expressed for co-immunoprecipitation) (UniProt P53350). The assay is described as follows: co-IP; Flag or HA-tagged SHCBP1, PLK1 and/or MISP co-expressed in HEK293T cells synchronised to the mitotic phase with 40 ng/mL nocodazole; anti-Flag M2 agarose.
The target of assay [6] is PLK1 expressed in E. coli for the GST pulldown (UniProt P53350). The assay is described as follows: pull-down; GST pulldown (Pierce GST protein interaction pulldown kit) with 6His-GST-SHCBP1 and PLK1 or MISP expressed in E. coli; Coomassie staining and immunoblotting; also with TFBG. For orientation: In western blotting, separated proteins are transferred to a membrane and probed.

For assay [7], the target named is T5, eCFP-Shc1 (UniProt P29353).
T5 sequence: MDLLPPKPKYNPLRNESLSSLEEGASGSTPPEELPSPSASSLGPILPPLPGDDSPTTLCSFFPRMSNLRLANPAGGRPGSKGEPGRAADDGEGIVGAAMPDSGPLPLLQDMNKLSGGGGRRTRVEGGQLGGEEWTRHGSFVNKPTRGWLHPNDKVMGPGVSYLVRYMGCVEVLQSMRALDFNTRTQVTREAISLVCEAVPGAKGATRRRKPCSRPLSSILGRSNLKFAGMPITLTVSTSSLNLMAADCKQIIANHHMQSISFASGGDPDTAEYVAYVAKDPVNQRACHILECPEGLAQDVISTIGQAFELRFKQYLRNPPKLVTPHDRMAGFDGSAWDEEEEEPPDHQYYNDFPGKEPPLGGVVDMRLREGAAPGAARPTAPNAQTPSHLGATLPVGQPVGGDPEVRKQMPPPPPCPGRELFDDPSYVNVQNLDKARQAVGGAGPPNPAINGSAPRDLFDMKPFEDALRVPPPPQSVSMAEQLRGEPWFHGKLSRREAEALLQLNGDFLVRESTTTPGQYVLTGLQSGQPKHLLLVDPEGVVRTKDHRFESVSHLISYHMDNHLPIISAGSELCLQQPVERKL
The assay is described as follows: FRET or BRET; acceptor photobleaching FRET of eCFP-Shc1 and eYFP-SHCBP1 in transfected cells; 100 ng/mL EGF for the indicated times and/or trastuzumab.

These are yes or no findings as the source states them, for the method shown. For part of these data: Binding seen in cells or lysates may run through a third protein. Some binding calls cover weakened binding; strength is not graded here. Where a sequence is shown, tags or fusion partners need not be part of it.

Our source for the binding values is publication PMC8121856.

On to “HA-PLK1 (from UniProt P53350 1-603) (enzyme)”, for which, in assay [1], the binding result is recorded as “binds”.
As to “PLK1 prey (Gal4 activation domain fusion, pACT2) (from UniProt P53350 1-603) (enzyme)”, the binding result in assay [2] is reported as “binds”.
On to “kinase domain (KD) of PLK1 (co-immunoprecipitation construct) (from UniProt P53350 53-305) (domain or fragment)”, for which, in assay [3], the binding result was “no binding”.
On the same count and under the same terms, to “polo-box domain (PBD) of PLK1 (co-immunoprecipitation construct) (from UniProt P53350 367-603) (domain or fragment)” belongs “binds”.
In the case of “polo-box domain (PBD) of PLK1 (yeast two-hybrid construct) (from UniProt P53350 367-603) (domain or fragment)”, the binding entry in assay [4] is given as “binds”.

B1: Flag or HA-tagged MISP (co-expressed in HEK293T) (protein, UniProt Q8IVT2 1-679)
chain: T1 sequence
With B1, the binding result in assay [5] is reported as “binds”.

B2: MISP expressed in E. coli for the GST pulldown (protein, UniProt Q8IVT2 1-679)
chain: T1 sequence
In the case of B2, the binding entry in assay [6] is “binds”.

B3: eYFP-SHCBP1 (protein, UniProt Q8NEM2 1-672)
chain: T3 sequence
Consider B3, for which the binding result in assay [7] was “binds”.

B4: SHCBP1 prey (Gal4 activation domain fusion, pACT2) (protein, UniProt Q8NEM2 1-672)
chain: T3 sequence
Take B4: the binding entry in assay [2] is listed as “no binding”.
